Measurements published in the supplement of paper PMC12217912.
This is one part of the list. Sequences were assembled here from the parent chain. Inactive controls read about 0.05.

B1: TEV protease; numbered along this chain (parent)
chain: MGESLFKGPRDYNPISSSICHLTNESDGHTTSLYGIGFGPFIITNKHLFRRNNGTLVVQSLHGVFKVKDTTTLQQHLVDGRDMIIIRMPKDFPPFPQKLKFREPQREERICLVTTNFQTKSMSSMVSDTSCTFPSGDGIFWKHWIQTKDGQCGSPLVSTRDGFIVGIHSASNFTNTNNYFTSVPKNFMELLTNQEAQQWVSGWRLNADSVLWGGHKVFMVKPEEPFQPVKEATQL

Variants of: B1
Assay: raw area under fraction-flipped curve 0-4 h after induction (AUC4h, not background-subtracted), DNA-recorder readout of cleavage of the substrate (dimensionless); higher = more cleavage of the substrate by the protease variant
Conditions: temperature: 34 °C; time window: 0-4 h after rhamnose induction
Description: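 In vivo DNA recorder in E. coli TOP10(DE3) ΔrhaA at 34 °C. Each TEVp single-site mutant (parent TEVp 0) is paired with a single-site variant of the 7-mer TEVs (canonical ENLYFQ|S). The substrate sits between flexible linkers in a Bxb1-sfGFP-TEVs-SsrA fusion, so cleavage stabilises Bxb1 and speeds flipping of a recombination array, read by NGS. The value is the raw area under the fraction-flipped curve over 0-4 h after rhamnose induction (AUC4h), with ≥20 reads per time point. It is not background-subtracted; inactive controls average about 0.047.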
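Further: Bxb1 expression induced with 0.2% (w/v) L-rhamnose at OD600 near 0.5, cultures sampled hourly, flipped fraction per protease–substrate barcode pair counted by paired-end Illumina sequencing.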

Variant | area with substrate ENLYFQA | area with substrate ENLYFQC | area with substrate ENLYFQD | area with substrate ENLYFQG | area with substrate ENLYFQI | area with substrate ENLYFQK | area with substrate ENLYFQL | area with substrate ENLYFQP | area with substrate ENLYFQR | area with substrate ENLYFQS | area with substrate ENLYFQT | area with substrate ENLYFQV | area with substrate ENLYFQW | area with substrate ENLYFQF | area with substrate ENLYFQH | area with substrate ENLYFQM | area with substrate ENLYFQQ | area with substrate ENLYFQY | area with substrate ENLYFQE | area with substrate ENLYFQN
T233G | 0.0796 | 0.1 | 0.0733 | 0.101 | 0.0586 | 0.0461 | 0.0585 | 0.0601 | 0.0578 | 0.111 | 0.0672 | 0.0665 | 0.073 | – | – | – | – | – | – | –
T233H | 0.14 | 0.103 | – | 0.105 | 0.0799 | 0.0598 | 0.0588 | – | 0.0763 | 0.102 | 0.063 | – | 0.0553 | 0.0785 | 0.0709 | 0.0994 | 0.0787 | 0.0478 | – | –
T233K | 0.102 | 0.114 | – | 0.0821 | – | 0.0543 | – | – | 0.0463 | 0.107 | 0.0644 | – | 0.0853 | 0.0508 | 0.0865 | – | – | 0.0865 | – | –
Q234I | 0.0881 | 0.0833 | – | 0.113 | – | – | 0.0532 | – | – | 0.0937 | 0.102 | – | – | – | – | – | 0.0429 | 0.0667 | 0.0593 | –
Q234K | 0.119 | 0.118 | 0.0762 | 0.104 | – | – | 0.0507 | 0.0608 | 0.0614 | 0.109 | 0.0679 | 0.0542 | 0.0683 | 0.101 | 0.0824 | 0.138 | 0.0665 | – | – | 0.0733
S4M | – | 0.102 | – | 0.0756 | 0.0587 | 0.0866 | 0.0469 | 0.0656 | 0.0533 | 0.082 | 0.0682 | 0.0695 | 0.0579 | – | – | 0.0656 | 0.061 | 0.0695 | – | 0.0755
F6H | – | 0.104 | – | – | – | – | 0.0607 | 0.0293 | – | 0.1 | 0.0477 | – | – | 0.0651 | – | – | 0.108 | 0.0696 | – | 0.0639
Y12H | – | 0.141 | 0.0748 | 0.0717 | 0.0587 | 0.0657 | 0.053 | 0.0521 | 0.0574 | 0.105 | 0.0598 | 0.061 | 0.0676 | – | 0.0783 | 0.113 | 0.0701 | 0.0547 | – | 0.082
Y12K | – | 0.1 | 0.069 | 0.0727 | 0.0467 | 0.0438 | 0.0703 | 0.0515 | 0.0496 | 0.0956 | 0.0704 | 0.0505 | 0.0741 | – | – | – | – | 0.0663 | – | 0.0779
Y12S | – | 0.0904 | 0.0593 | 0.071 | 0.045 | 0.0602 | 0.0582 | 0.0696 | 0.0426 | 0.0905 | 0.071 | 0.0472 | 0.063 | 0.0704 | 0.0843 | 0.0813 | – | 0.07 | 0.0602 | 0.0735
N13G | – | 0.0937 | 0.0714 | 0.0803 | 0.0557 | 0.0535 | 0.0762 | 0.061 | 0.0615 | 0.0936 | 0.0653 | 0.0611 | 0.0532 | 0.0781 | 0.0771 | – | 0.0839 | 0.064 | – | 0.0915
I15S | – | 0.103 | 0.0505 | 0.0508 | 0.0509 | 0.0531 | 0.0588 | 0.0433 | 0.0619 | 0.0746 | 0.0574 | 0.0764 | – | – | 0.0421 | 0.0701 | 0.0466 | 0.0724 | 0.062 | 0.0572
